Cytotoxicity call data for 39 compounds are collected here from the antibiotic and cytotoxicity screens of Wong et al. (2023).

Some of the results follow.

The assay concerns HSkMC (human skeletal muscle cells). The assay can be described thus: cytotoxicity call (relative viability < 0.9). The conditions noted are these: 10 µM.
For the compound `C[N+](C)(C)C[C@H]1CCC[C@@H]1O`, the cytotoxicity call is “inactive”. Next, `CNCCc1ccc(O)c(O)c1`: “inactive”. Next, `Cc1cnc(C(=O)N2C[C@H]3CNC[C@H]3C2)cn1`: “inactive”; `CCN(C)C(=O)Oc1cccc(C(C)N(C)C)c1.O=C(O)C(O)C(O)C(=O)O` (centres undefined): “inactive”; `C[N+]1([O-])C2CCC1CC(OC(=O)C(CO)c1ccccc1)C2` (centres undefined): “inactive”.

Consider `CN1CCN(Cc2ccc[nH]2)CC1`, for which the cytotoxicity call was “inactive”. For the compound `CC1=C2C3OC(=O)C(C)C3CCC2(C)C=CC1=O` (centres undefined), the cytotoxicity call is “inactive”.

Regarding `O=C(O)C[C@H]1CC[C@@H]2NC[C@H](O)COC[C@H]2O1`, the cytotoxicity call was “inactive”. Next, `COc1ccc(N=[N+]=[N-])cc1`: “inactive”; `C=CCC1(O)CCC2C3CCC4=CC(=O)CCC4=C3C=CC21C` (centres undefined): “inactive”.

As to `COc1cccc(-c2ccc3c(CCN)c[nH]c3c2)c1`, the cytotoxicity call was “inactive”. To `CC(C)C12OC1C1OC13C1(C)CCC4=C(COC4=O)C1CC1OC13C2O` (centres undefined) belongs “inactive”; to `CC1(C)C(=O)C=CC2(C)C1=C(O)C(=O)C1(C)C2CCC2(C)C(c3ccoc3)CC3OC321` (centres undefined), “active”; to `COCC(=O)N1[C@@H]2Cn3c(ccc(C4=CCCC4)c3=O)[C@H]1[C@@H](C(=O)OC)[C@@H]2CO`, “inactive”. On to `O=C(NCNC(=O)N[C@H]1C(=O)NC(=O)N1CO)N[C@H]1C(=O)NC(=O)N1CO`, for which the cytotoxicity call was “inactive”. `CC(C)c1cccc(C(C)C)c1O`: the cytotoxicity call is “inactive”. Next, `CC[C@@H](C)C(=O)O[C@@H]1C[C@@]2(C)[C@H](c3ccoc3)OC(=O)C[C@]23O[C@@]2(C)O[C@]34[C@H](OC(=O)C(C)C)[C@@]3(O)[C@@H](OC(=O)[C@@]5(C)O[C@@H]5C)[C@@]5(C)C[C@]3(O)[C@@](C)([C@H]5CC(=O)OC)[C@@]14O2`: “inactive”; `NC(=O)CN1CC[C@@H](NC(=O)[C@@H]2CCCN2)C1=O`: “inactive”; `C[C@@H](N)Cc1ccco1`: “inactive”. Next, `C[C@@H]1O[C@@H](O[C@H]2CC[C@]3(C=O)[C@H]4CC[C@]5(C)[C@@H](C6=CC(=O)OC6)CC[C@]5(O)[C@@H]4CC[C@]3(O)C2)[C@H](O)[C@H](O)[C@H]1O`: “active”; `CCC1(C)CC(=O)NC(=O)C1`: “inactive”; `CCC1(c2ccccc2)C(=O)NC(=O)NC1=O`: “inactive”. To `COc1ccc(C(=O)O)cc1OC` belongs “inactive”; to `CCCC12CNCC(C)(CNC1)C2=O`, “inactive”; to `CC(=O)OC1CC2C(C)(C)C(=O)C=CC2(C)C2CCC3(C)C(=CC(=O)OC3c3ccoc3)C12C` (centres undefined), “inactive”. Consider `CCN1C[C@@]2(C)CC[C@H](OC)C34[C@@H]2[C@H](O)[C@]2(OCO[C@@]25C[C@H](OC)[C@H]2C[C@]3(O)[C@@H]5[C@H]2O)[C@@H]14`, for which the cytotoxicity call was “inactive”. Consider `CN(C)C(=O)[C@@]1(Cc2ccccc2CN=[N+]=[N-])N=C(c2ccc(OCCCO)cc2)O[C@H]1c1ccccc1N=[N+]=[N-]`, for which the cytotoxicity call is “inactive”. For the compound `CC1=NCCc2c1[nH]c1cc(O)ccc21.Cl.O.O`, the cytotoxicity call is “inactive”. For the compound `c1ccc2sc(C3(N4CCCC4)CCCCC3)cc2c1`, the cytotoxicity call is “inactive”. `O=C([O-])c1ccccc1-c1c2cc(Br)c(=O)cc-2oc2[c]([Hg][OH])c([O-])c(Br)cc12.[Na+].[Na+]`: the cytotoxicity call is “inactive”.

In the case of `CC(=O)N1CCCC[C@]12CCNC2`, the cytotoxicity call was “inactive”. As for `Cc1ccc(N2CCO[C@@H]3CNCC[C@H]3C2)nn1`, the cytotoxicity call is “inactive”. Next, `CN[C@@H]1[C@@H](O)[C@@H](O[C@@H]2[C@H](O)[C@@H](O[C@H]3O[C@H]([C@@H](C)O)[C@@H](O)[C@H](O)[C@H]3N)[C@H](N)C[C@@H]2N)OC[C@]1(C)O`: “inactive”. As to `O=C(O)CN1C[C@@H]2C(NC(=O)c3ccno3)[C@H]2C1` (some centres undefined), the cytotoxicity call is “inactive”. To `CCOC(=O)c1c(CN2CCN(c3ccccc3)CC2)n(Cc2ccccc2)c2cc(Br)c(O)cc12` belongs “active”; to `N#C[C@H](O[C@@H]1O[C@H](CO)[C@@H](O)[C@H](O)[C@H]1O)c1ccc(O)cc1`, “inactive”; to `N#CC(c1ccccc1)c1ccccc1`, “inactive”. Next, `C1CCNCC1`: “inactive”; `C=CCc1ccc(OC)cc1`: “inactive”.
